# Experimental data from the supplement of paper PMC3334620.
# In all, about 33,000 sequences were measured (“E-score (-0.5 to 0.5)”: median about -0.012, highest 2% from about 0.27 on). Some of the results follow.
# Biological target: T1, Vhr1 (UniProt P40522)
# T1 sequence: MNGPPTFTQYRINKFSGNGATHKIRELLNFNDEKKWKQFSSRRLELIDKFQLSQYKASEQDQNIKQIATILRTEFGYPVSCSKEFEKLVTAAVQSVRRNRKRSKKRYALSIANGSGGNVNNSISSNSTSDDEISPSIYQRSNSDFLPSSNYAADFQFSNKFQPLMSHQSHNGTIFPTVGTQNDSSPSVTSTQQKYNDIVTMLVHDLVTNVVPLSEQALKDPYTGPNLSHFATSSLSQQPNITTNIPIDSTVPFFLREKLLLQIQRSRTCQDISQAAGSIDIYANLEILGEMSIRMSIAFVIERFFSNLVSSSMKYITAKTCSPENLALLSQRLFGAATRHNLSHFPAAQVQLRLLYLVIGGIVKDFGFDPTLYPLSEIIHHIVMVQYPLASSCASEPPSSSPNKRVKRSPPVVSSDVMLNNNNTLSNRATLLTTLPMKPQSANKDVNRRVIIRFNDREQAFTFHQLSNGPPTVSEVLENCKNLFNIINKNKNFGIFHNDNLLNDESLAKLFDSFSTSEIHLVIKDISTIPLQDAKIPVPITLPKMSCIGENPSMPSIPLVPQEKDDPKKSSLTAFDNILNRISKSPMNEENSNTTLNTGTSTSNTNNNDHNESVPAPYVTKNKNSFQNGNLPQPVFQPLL
# Assay: PBM E-score (8-mer binding enrichment) (E-score (-0.5 to 0.5)); higher = stronger / more preferred TF binding; most listed sequences are background and not binding sites
# Settings: protein concentration: 200 nM; construct: GST-full length
# Summary of the method: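 Each ungapped eight-base word and its reverse complement, pooled, received an E-score from the Universal PBM Analysis Suite. Underlying scans, normalised with masliner, recorded fluorescent anti-GST bound to GST-tagged yeast transcription factors. These were applied at about 100-200 nM to universal all-10-mer Agilent arrays double-stranded by primer extension.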
row,Sequence,PBM E-score
1,ACAGGGCT,-0.0894
2,CCGGGGAC,-0.0397
3,GTCTATCA,0.104
4,ACAGGAAA,0.018
5,ACCTCGAA,-0.0863
6,ACATGATA,0.178
7,ATTAGCCA,0.194
8,AACTAACA,0.129
9,AATATCCG,0.0216
10,GTCAGTAA,-0.0359
11,ACCGGAAG,0.0351
12,AGAGCTAT,-0.2
13,CATCCCTA,-0.0594
14,CCTACTGC,-0.197
15,GTCTACAC,0.082
16,CCCTATCA,0.0115
17,ACAATTGT,0.0553
18,ACCTATGA,0.128
19,AGTAACCA,0.0676
20,AACCACTC,0.193
21,CGAGCGAC,0.0407
22,AAGCATCT,-0.0662
23,AACATCCC,-0.0107
24,GGGACGCA,-0.159
25,AAGTAGGG,-0.0126

row,Sequence,PBM E-score
1,CAACCTAC,0.0933
2,AACTTTTC,-0.173
3,AGGGCCGG,-0.111
4,AACTGGGC,-0.165
5,CGCTCTAG,-0.106
6,CAGGACGA,0.0237
7,AGGTTCCC,-0.142
8,AAACTGCA,-0.166
9,CAGTATTA,0.17
10,ACGAGAAT,0.0416
11,AATTGACC,-0.132
12,CGCACTAG,0.0106
13,CTATCCCC,-0.055
14,CTTTCCAA,-0.0715
15,AAGCACAT,0.0653
16,AACTCGGA,0.0616
17,AGACGTCA,0.00677
18,AAGTTTGA,-0.11
19,CACGAGCC,0.0419
20,ACGTCCGA,-0.111
21,AGTCTTAC,0.201
22,AGCTTGCA,-0.207
23,AAGATGTC,-0.134
24,AATCGTGT,0.0868
25,CGGCAGCC,0.282

row,Sequence,PBM E-score
1,AATCTTAC,0.156
2,AGTCCATA,0.0368
3,GATCCGAC,-0.0599
4,ACTCGGCT,0.0351
5,CATGGTGG,0.0917
6,CGTATTCC,-0.0165
7,GCAGACCC,-0.126
8,AATCCCGG,0.0437
9,GGCAGCAA,-0.113
10,ATGCGACA,0.0864
11,ACACCCTC,0.116
12,GGCCGGCC,0.0167
13,GCGAACGA,0.0882
14,CTTCTGCA,-0.194
15,CTCCAGGC,-0.149
16,CTTGCGGC,-0.0654
17,AACGCACG,0.178
18,GAATCTGA,-0.12
19,TCACACAA,0.123
20,ACAATTTA,0.0136
21,AGATACCA,0.229
22,AGCGGAAA,-0.134
23,ACTCTCAT,0.027
24,CCATGTAA,0.098
25,GGCTGTCA,-0.267

row,Sequence,PBM E-score
1,ACAGGGAG,0.012
2,CCGAACTC,-0.0227
3,AGTGCAGG,0.0364
4,TCAGGCCA,0.0201
5,AGTGTTAG,0.191
6,AGTCATTG,0.389
7,CCACGGCA,-0.0546
8,TAAGGCAA,-0.179
9,ATACCTTA,-0.154
10,ACCCGACG,-0.038
11,CATAGGAG,0.0874
12,ACTAACCA,0.208
13,GCGCCTAA,-0.0189
14,AGAGATTA,0.0577
15,AGGGGGAG,-0.127
16,AGCCGTTG,-0.154
17,ACTGAAGA,-0.0785
18,ATCTGAAT,0.214
19,CCCGGCGC,0.0263
20,CCGTTGCC,-0.206
21,CACCGAAA,0.141
22,CTCACAGC,0.0806
23,ACCAATTG,-0.136
24,ATCTGCGG,0.0146
25,AAATCCTA,-0.112

row,Sequence,PBM E-score
1,AGAACCGG,-0.00656
2,ACGCCTCC,-0.156
3,ATCCCCAG,-0.169
4,AGCAACCG,0.0071
5,CATCAGGG,-0.0314
6,AACGGGCT,-0.119
7,GGTGATTA,0.285
8,ACCCTCCA,0.0774
9,AATCGGCC,-0.0517
10,CCGATCCA,0.0419
11,AAAGTTTC,-0.187
12,GAGTCGCA,0.391
13,CAGGTGAG,0.0612
14,GGCAATGA,0.0747
15,CACGCTGG,0.115
16,CAAGTACA,0.0134
17,CTGACTTC,0.195
18,GGCCCCAC,-0.185
19,AAGGATTA,-0.0995
20,GTACATTA,-0.11
21,AGGTTGAC,0.155
22,AACTTGCG,-0.0563
23,ATCAGACA,0.0842
24,CTAGTTAC,-0.025
25,CCTTCTCC,-0.175

row,Sequence,PBM E-score
1,CCAACGTC,0.0107
2,CTCAATTA,0.0871
3,CGACACGA,0.233
4,AACGAAGC,-0.0946
5,ACCTGCAT,0.0681
6,CTAATAAG,-0.142
7,ATCCTCAT,0.0301
8,AGGCAGTC,0.125
9,GGTCCGCA,-0.066
10,AAACCTGT,-0.0542
11,ACTAGCAT,0.099
12,ACATATTC,0.0778
13,CAGACGGA,-0.0574
14,CGCATACC,0.059
15,AAGGCATG,-0.0217
16,AGGCGTAA,-0.00992
17,GTAGCATA,0.079
18,TTAAAAAA,-0.192
19,ACCCCGTG,0.169
20,CGTAATAC,0.088
21,CCGCTGGA,-0.0416
22,ATTATTCG,-0.0568
23,GTAAGGAA,-0.216
24,CGAGCGAG,0.262
25,GTCAAACA,-0.116

row,Sequence,PBM E-score
1,CCCATGGC,0.142
2,AATTTGCA,-0.296
3,GCGTAACA,-0.0483
4,AGTTTGTG,-0.0128
5,CTCATGAA,0.0223
6,ATAAACAA,0.115
7,CAGGGGCA,-0.0453
8,CTCCTTCA,-0.212
9,AGGGATAT,-0.0794
10,CACACTAC,0.078
11,AATTTAAC,0.2
12,CCGTATCC,0.13
13,CATGTGCC,0.0182
14,GTCCCGTA,-0.165
15,ATCCACGG,0.0499
16,CTCCGTGA,0.0921
17,ACCTACAG,0.0973
18,GAGACTAC,0.135
19,CCGAAAAC,-0.125
20,AAGACTGA,-0.0881
21,CCAATTAC,0.0306
22,AATGGTAG,0.191
